This note sets out measurements from PubChem BioAssay AID1159614 (National Center for Advancing Translational Sciences (NCATS), 2016).

The structures appear in SMILES notation. In all, about 45,000 compounds went through this assay and about 65 (0.1%) were called active. The call rests on the fitted dose curve; in most records, active means well fitted activation curve with a large enough effect; inconclusive means small, poorly fitted or top-dose-only effect; inactive means no such curve, though single readings can be large or run the other way. Some of the results follow.

UniProt P54803, sequence (P54803 whole entry, looked up): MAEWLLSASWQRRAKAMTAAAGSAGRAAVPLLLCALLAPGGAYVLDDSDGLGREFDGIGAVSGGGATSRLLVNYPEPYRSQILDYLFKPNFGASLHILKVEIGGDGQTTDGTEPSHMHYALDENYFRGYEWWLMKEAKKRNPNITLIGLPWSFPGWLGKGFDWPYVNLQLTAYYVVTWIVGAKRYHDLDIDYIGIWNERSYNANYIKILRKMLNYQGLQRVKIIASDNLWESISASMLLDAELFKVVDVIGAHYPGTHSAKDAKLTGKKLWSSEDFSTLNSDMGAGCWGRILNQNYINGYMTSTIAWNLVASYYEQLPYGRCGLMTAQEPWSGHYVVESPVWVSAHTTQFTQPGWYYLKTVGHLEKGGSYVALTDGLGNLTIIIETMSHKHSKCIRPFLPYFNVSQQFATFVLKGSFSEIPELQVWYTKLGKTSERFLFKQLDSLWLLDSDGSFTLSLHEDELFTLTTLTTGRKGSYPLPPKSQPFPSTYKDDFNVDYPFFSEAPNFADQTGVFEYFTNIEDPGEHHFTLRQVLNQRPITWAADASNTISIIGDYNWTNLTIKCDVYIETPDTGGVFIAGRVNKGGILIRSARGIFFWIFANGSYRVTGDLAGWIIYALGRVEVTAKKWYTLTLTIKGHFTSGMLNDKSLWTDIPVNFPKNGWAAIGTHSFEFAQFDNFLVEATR

The test concerns the target Galactocerebrosidase (Homo sapiens) (UniProt P54803). Put plainly: A Novel Cell-Based Assay to Identify Small Molecules for B -Galactocerebrosidase. Further: 0% is about no effect; nearly all actives have a fitted effect of over 65% in size. To be noted: 145M-Twi-hGALC-G270D cells (Twitcher mouse brain line with human GALC G270D), HMU-beta-Gal fluorescence, 48 h; series mostly up to 57.5 µM; activation: at the top concentration. Summed up:
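Brain-derived Twitcher mouse 145M-Twi cells stably expressing human GALC-G270D or wild-type GALC, treated live, then residual GALC activity read by fluorescence of HMU-b-Gal substrate (0.1 mM final) in citrate-phosphate buffer pH 5.2 with sodium taurocholate. Signal increase indicates enhancement.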
As to `CCC(=O)N1CCc2cc(Br)cc(S(=O)(=O)CCC(=O)N3CCN(c4ccccc4F)CC3)c21`, the “activation” value is inactive: -33%. The figure for `O=C(NC1CCCC1)c1cc(Nc2cccc(C(F)(F)F)c2)nc2ccccc12` is inactive: -4.36%.

With `Cc1ccc(S(=O)(=O)c2nc(S(C)(=O)=O)sc2N(C)Cc2ccccc2)cc1`, the “activation” value was inactive: -12.8%. `Cc1cccc(NC(=O)C2CCC(CNS(=O)(=O)c3csc(C(N)=O)c3)CC2)c1C` (stereo unspecified): the “activation” value was inactive: -3.64%. For `Cc1nc2c(c(C)c1CCC(=O)NCc1ccccc1)c(=O)n(C)c(=O)n2C`, the “activation” value is inactive: 6.14%. The value for `COc1cc(NC(=O)CSc2nc3ccccc3nc2Cc2ccc(Cl)cc2)cc(OC)c1` was inactive: -5.01%; that for `COCCCNC(=O)CSc1nc2c(sc3ccccc32)c(=O)n1CCc1ccccc1` was inactive: -6.04%; that for `CC(C)(C)c1ccc(OCC(=O)Nc2ccc(S(=O)(=O)Nc3ncccn3)cc2)cc1` was inactive: -13.5%. The value for `CCOC(=O)c1cccc(NC(=O)c2cc3c(-c4cccc(OC)c4)nn(C)c3s2)c1` was inactive: -12.5%; that for `Cc1nn(C)c2c1c(-c1ccccc1)cc(=O)n2CC(=O)Nc1ccccc1C(F)(F)F` was inactive: -5.89%; that for `O=C(NCCCc1nc2ccccc2n1Cc1c(F)cccc1Cl)C1CCCCC1` was inactive: -9.24%. The figure for `O=C(COc1ccccc1Cl)Nc1nnc(S(=O)(=O)N2CCCCCC2)s1` is inactive: -10.2%. As for `Cc1nn2c(=O)cc(COc3ccc(/C=C(\C#N)C(=O)Nc4ccc(F)cc4)cc3)nc2s1`, the “activation” value was inactive: -4.16%. With `N#Cc1c(N)n(-c2cccc(Cl)c2)c2nc3ccccc3nc12`, the “activation” value was inactive: -5.31%. The value for `COc1cccc(Nc2cc(C)nc3nc(-c4ccc(Cl)cc4)nn23)c1` was inactive: -12.2%. As for `CCOc1ccc(CNc2nc3nc(C)c(Cc4ccccc4)c(=O)n3[nH]2)cc1`, the “activation” value was inactive: -5.7%. As to `CCc1ccc(CNC(=O)C2Cc3cc(S(=O)(=O)N4CCCCCC4)ccc3N2C(C)=O)cc1` (stereo unspecified), the “activation” value is inactive: -1.1%. `COc1ccc2c(c1)CC(C(=O)Nc1cc(Cl)ccc1C)CO2` (stereo unspecified): the “activation” value was inactive: -20.3%. The value for `COc1cc(NC(=O)Nc2cccc(-c3noc(C)n3)c2)cc(OC)c1OC` was inactive: -4.64%. For the molecule `Cc1cn2c(=O)cc(COc3ccc(Cl)cc3)nc2s1`, the “activation” value is inactive: -1.73%.

`Cc1ccc(Cl)cc1NC(=O)Cc1ccc(-n2c(C)nc3cccnc32)cc1`: the “activation” value is inactive: -11.1%. The value for `CCC(C)n1ncn(-c2ccc(N3CCN(c4ccc(OC[C@H]5CO[C@](Cn6cncn6)(c6ccc(Cl)cc6Cl)O5)cc4)CC3)cc2)c1=O` (stereo partly specified) was inactive: -12.9%. In the case of `CCOc1ccc(-n2c(=O)c3c(C)c(C)sc3n(CC(=O)N(CC)Cc3ccccc3)c2=O)cc1`, the “activation” value was inactive: -10%.

With `Cc1cccc(NC(=O)C2CCC(CNS(=O)(=O)c3ccc(Br)s3)CC2)c1` (stereo unspecified), the “activation” value was inactive: -15.3%. As for `Cc1ccc(C)c(C(=O)c2c(N)c(-c3nc(-c4ccc5c(c4)OCO5)cs3)c3ccccn23)c1`, the “activation” value is inactive: -5.98%. The value for `COc1cccc(C2CC(=O)N(c3ccc(F)cc3)C3=C2C(=O)OC3)c1OC` (stereo unspecified) was inactive: -12.8%; that for `Cc1ccc(OCC(=O)Nc2ccc(Cl)c(-c3nc4ncccc4o3)c2)c(C)c1` was inactive: -16.6%; that for `CCCc1nn2c(=O)cc(COC(=O)c3ccccc3NC(=O)c3cccs3)nc2s1` was inactive: -7.5%. As for `COC(=O)[C@@H]1[C@H]2C[C@H]3c4[nH]c5ccccc5c4CCN3C[C@@H]2CC[C@@H]1O`, the “activation” value was inactive: -8.92%. The value for `COc1ccc(N(Cc2cccs2)C(=O)c2ccc(OCC(C)C)cc2)cc1` was inactive: -14.4%; that for `COc1cc(C2c3c(oc4ccccc4c3=O)C(=O)N2c2ccccn2)cc(OC)c1OC` (stereo unspecified) was inactive: 3.49%.

Consider `Cc1ccc(NC(=O)C2CCCN(S(=O)(=O)c3cccc4cccnc34)C2)cc1` (stereo unspecified), for which the “activation” value was inactive: 0.949%.

With `Cc1ccc(Cl)cc1NC(=O)c1oc2ccc(S(=O)(=O)N3CCCCC3)cc2c1C`, the “activation” value is inactive: -8.28%.

Regarding `CCc1nonc1NC(=O)c1oc2ccc(Br)cc2c1C`, the “activation” value was inactive: 0.318%. For `CCc1ccc(-n2c(=O)c3c4c(sc3n(CC(=O)N3CCC(C)CC3)c2=O)CCC4)cc1`, the “activation” value is inactive: -3.67%. On to `CC(=O)CSc1nnc2cc(C)c3cc(C)cc(C)c3n12`, for which the “activation” value was inactive: -1.85%. The value for `Cc1nn(C(C)C(=O)N2CCN(c3ccc(Cl)cc3)CC2)c(=O)c2cc3occc3n12` (stereo unspecified) was inactive: -5.43%; that for `CCOC(=O)c1ccc(NC(=O)CSc2cc(=O)n(CC)c3ccccc23)cc1` was inactive: -5.73%. Consider `Cc1ccc(Cl)cc1NC(=O)c1oc2ccc(S(=O)(=O)N(C)C3CCCCC3)cc2c1C`, for which the “activation” value is inactive: -13.9%.

Consider `Cc1ccc(S(=O)(=O)c2cn(Cc3cccc(C)c3)c3cc4c(cc3c2=O)OCO4)cc1`, for which the “activation” value is inactive: -13.9%. The value for `CCOc1ccc(CN2C(=O)c3ccccc3Sc3ccc(C(=O)O)cc32)cc1` was inactive: -2.76%; that for `O=C(NCCc1ccc(Cl)cc1)C(=O)NCC(c1ccco1)S(=O)(=O)c1ccc(Cl)cc1` (stereo unspecified) was inactive: -10.7%.

For the molecule `Cc1ccc2c(c1)c(=O)c(C(=O)c1ccc3c(c1)OCO3)cn2Cc1ccc(Cl)cc1`, the “activation” value was inactive: 5.83%. The value for `COc1cc(NC(=O)CCc2c(C)nc3cc(-c4ccccc4)nn3c2C)cc(OC)c1OC` was inactive: -9.67%. The value for `CCOc1ccc(CN(C(=O)c2cc(=O)c3cc(C)cc(C)c3o2)C2CCS(=O)(=O)C2)cc1` (stereo unspecified) was inactive: -19.4%; that for `CCC(CC)C(=O)Nc1nnc(SCc2cc(=O)n3cccc(C)c3n2)s1` was inactive: -20.9%.

Turning to `CSc1ccc(/C=C/c2nc3ccccc3n2S(=O)(=O)c2cccc(Cl)c2)cc1`, the “activation” value is inactive: -14.8%.

Consider `CN(C(=O)CSc1nnc(-c2ccccc2F)o1)C1CCCCC1`, for which the “activation” value was inactive: 1.44%. The figure for `c1coc(-c2nc3n(n2)C2(CCCCC2)[C@@H]2CCCC[C@@H]2N3)c1` is inactive: -13.4%. For `Cc1oc2ncnc(N3CCCCC3)c2c1C(=O)N1CCN(c2cccc(Cl)c2)CC1`, the “activation” value is inactive: -18.7%. The figure for `CCCN1C(=O)C2(c3ccccc31)c1c(oc3ccc(F)cc3c1=O)C(=O)N2CCCOC(C)C` (stereo unspecified) is inactive: -6.49%; for `O=C(Nc1cccc(F)c1)C1CCN(S(=O)(=O)c2cccc3nsnc23)CC1` it is inactive: -12.3%; for `COc1ccc(CCNS(=O)(=O)c2cc(-c3cc(C)no3)ccc2C)cc1OC` it is inactive: -10.3%.

As for `CCn1cc2nc(SCc3cccc(Cl)c3)n(Cc3ccc(C)cc3)c(=O)c2n1`, the “activation” value was inactive: -6.86%. Take `CC(C)c1cnc2c(c1SCC(=O)Nc1cccc(F)c1)c(=O)n(C)c(=O)n2C`: the “activation” value was inactive: -6.97%. With `Cc1ccc(Cl)cc1Nc1nn2c(=O)c3ccc(C(=O)N4CCCC(C)C4)cc3nc2s1` (stereo unspecified), the “activation” value was inactive: -10.3%. With `CN(C)c1ccc(CNC(=O)CCn2cccn2)cc1`, the “activation” value was inactive: -9.22%. Consider `CCc1ccc(CN2CCc3nc(N4CCN(CC)CC4)ncc3C2)cc1`, for which the “activation” value was inactive: 1.18%. The value for `CCN(C(=O)CSc1nc(-c2ccc(C(C)C)cc2)no1)c1cccc(C)c1` was inactive: 3.15%; that for `CCCCCCc1ccc(O)cc1O` was inactive: -17.1%. The value for `Cc1cccc(C(=O)Nc2nnc(S(=O)(=O)N(C)c3ccccc3C)s2)c1` was inactive: -29.8%.
